The source of these data is article PMC4336329 (PLoS ONE, 2015).

In all, about 310,000 compounds went through this assay and about 2,200 (0.71%) showed an effect of 50% or more. The effect is printed as a negative number. The list shows a part of the results.

The target in this experiment is human ether-à-go-go-related gene (hERG) potassium channel (human, UniProt Q12809). The experiment in a line: primary screen, population patch clamp on CHO cells stably expressing hERG.
Sequence of human ether-à-go-go-related gene (hERG) potassium channel (Q12809 whole entry, looked up): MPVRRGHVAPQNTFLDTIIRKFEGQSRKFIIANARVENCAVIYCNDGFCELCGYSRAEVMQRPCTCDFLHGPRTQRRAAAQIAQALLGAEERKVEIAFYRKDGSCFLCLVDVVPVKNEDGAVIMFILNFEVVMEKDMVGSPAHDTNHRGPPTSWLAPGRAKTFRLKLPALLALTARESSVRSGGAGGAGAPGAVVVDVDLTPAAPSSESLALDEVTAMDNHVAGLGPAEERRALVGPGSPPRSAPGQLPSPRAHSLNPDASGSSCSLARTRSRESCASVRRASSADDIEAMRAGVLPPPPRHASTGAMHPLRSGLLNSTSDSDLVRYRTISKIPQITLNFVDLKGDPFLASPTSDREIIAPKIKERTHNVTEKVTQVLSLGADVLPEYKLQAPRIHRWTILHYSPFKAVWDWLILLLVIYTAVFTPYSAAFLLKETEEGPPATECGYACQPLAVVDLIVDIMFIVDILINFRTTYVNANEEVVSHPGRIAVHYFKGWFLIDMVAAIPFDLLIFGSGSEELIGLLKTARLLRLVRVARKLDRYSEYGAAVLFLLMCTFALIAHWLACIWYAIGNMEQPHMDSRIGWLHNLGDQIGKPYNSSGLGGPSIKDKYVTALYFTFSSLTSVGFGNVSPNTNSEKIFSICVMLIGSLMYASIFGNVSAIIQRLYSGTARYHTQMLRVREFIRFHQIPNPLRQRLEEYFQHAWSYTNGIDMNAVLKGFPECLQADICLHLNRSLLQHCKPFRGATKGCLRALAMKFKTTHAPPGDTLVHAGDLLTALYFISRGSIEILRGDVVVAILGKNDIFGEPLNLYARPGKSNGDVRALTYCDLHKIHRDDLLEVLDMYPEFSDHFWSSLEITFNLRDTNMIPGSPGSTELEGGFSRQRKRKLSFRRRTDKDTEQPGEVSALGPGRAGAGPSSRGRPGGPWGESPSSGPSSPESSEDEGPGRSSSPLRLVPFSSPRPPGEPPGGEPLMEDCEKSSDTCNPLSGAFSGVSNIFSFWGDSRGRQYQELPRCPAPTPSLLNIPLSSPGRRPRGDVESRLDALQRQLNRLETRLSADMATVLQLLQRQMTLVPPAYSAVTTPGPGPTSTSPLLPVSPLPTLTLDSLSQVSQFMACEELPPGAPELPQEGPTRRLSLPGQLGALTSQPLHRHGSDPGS
For the compound `CCN1C(=O)N[C@@H](c2ccco2)C(C(=O)OC)=C1C`, the “hERG current change (%, negative = inhibition) at 1uM” value came to 17.4%.

In the case of `CC1(C)CC(=O)C(C=NCCN2CCN(C(=O)Cc3ccc(Cl)cc3)CC2)=C(O)C1`, the “hERG current change (%, negative = inhibition) at 1uM” value is given as -19.6%.

As to `Cc1cccc(-n2c(SCC(=O)NCC3CCCO3)nc3ccccc3c2=O)c1C` (stereo not shown), the “hERG current change (%, negative = inhibition) at 1uM” value came out at 0.772%.

Consider `CC(=O)c1ccc2noc(-c3ccc(Cl)cc3)c2c1`, for which the “hERG current change (%, negative = inhibition) at 1uM” value is 11%.

Turning to `CCOC(=O)C1CCN(C/C=C/c2ccccc2OC)CC1`, the “hERG current change (%, negative = inhibition) at 1uM” value was -0.831%.

Consider `COc1ccc(Cn2c(-c3ccco3)nc3oc4cc(OC)ccc4c(=O)c3c2=O)cc1`, for which the “hERG current change (%, negative = inhibition) at 1uM” value is recorded as -40.5%.

With `CCOC(=O)CC1C(=O)NCCN1C(=O)NC1CCCCC1` (stereo not shown), the “hERG current change (%, negative = inhibition) at 1uM” value was determined as 7.87%.

Regarding `CC(C)CC1NC(=O)c2ccccc2-n2c1nc1cc(F)ccc1c2=O` (stereo not shown), the “hERG current change (%, negative = inhibition) at 1uM” value is listed as 5.49%.

For the compound `Cn1ccnc1CC(O)(c1ccccc1)c1ccccc1`, the “hERG current change (%, negative = inhibition) at 1uM” value was determined as 2.99%.

In the case of `CCOc1cc(/C=C2/C(=O)NN(c3cccc(Cl)c3)C2=O)ccc1O`, the “hERG current change (%, negative = inhibition) at 1uM” value amounted to 11.6%.

In the case of `CC(C)OCCCNC(=O)c1cc(S(=O)(=O)N2CCCCC2)c[nH]1`, the “hERG current change (%, negative = inhibition) at 1uM” value came out at 8.79%.

For `CC(C)CN(CC(C)C)S(=O)(=O)N1CCC(C(=O)N2CCc3ccccc3C2)CC1`, the “hERG current change (%, negative = inhibition) at 1uM” value is reported as 11.8%.

Consider `CCC(C(=O)OCC(=O)N(CCOC)c1c(N)n(Cc2ccccc2)c(=O)[nH]c1=O)c1ccccc1` (stereo not shown), for which the “hERG current change (%, negative = inhibition) at 1uM” value turned out to be 11.1%.

On to `O=C(NC(Cc1c[nH]c2ccccc12)c1nnc2n1CCCCC2)c1ccccc1` (stereo not shown), for which the “hERG current change (%, negative = inhibition) at 1uM” value was determined as 14.6%.

In the case of `Cc1nc(N)nc(N/N=C/c2c(F)cccc2Cl)n1`, the “hERG current change (%, negative = inhibition) at 1uM” value was 11.4%.

For the compound `CC1=NN(Cc2cc(C(C)(C)C)c(O)c(C(C)(C)C)c2)C(=O)C1`, the “hERG current change (%, negative = inhibition) at 1uM” value was determined as 19.1%.

Turning to `Cc1nn(C(C)C(=O)NCCN2CCCC2)c(=O)c2c1sc1ccccc12` (stereo not shown), the “hERG current change (%, negative = inhibition) at 1uM” value was 10.5%.

`CCCc1nc(SCC(=O)N2CCCCCC2)c2c(=O)n(C)c(=O)n(C)c2n1`: the “hERG current change (%, negative = inhibition) at 1uM” value was -3.28%.

With `O=C(CCc1ccccc1)NNC(=O)Nc1cccc(Cl)c1`, the “hERG current change (%, negative = inhibition) at 1uM” value is given as 3.21%.

Turning to `O=C(Nc1cccnc1)c1ccc(Cl)c([N+](=O)[O-])c1`, the “hERG current change (%, negative = inhibition) at 1uM” value is 12.2%.

As to `COc1ccc(C(C(=O)NC2CCCC2)N(Cc2ccc(C)cc2)C(=O)c2ccn[nH]2)cc1OC` (stereo not shown), the “hERG current change (%, negative = inhibition) at 1uM” value came out at 8.51%.

Take `CCOC(=O)c1cc(CC)sc1NC(=O)c1cc(OC)c(OC)c(OC)c1`: the “hERG current change (%, negative = inhibition) at 1uM” value came out at 12.4%.

Regarding `N#CCC(=O)NCCCc1ccccc1`, the “hERG current change (%, negative = inhibition) at 1uM” value came to 8.55%.

As for `O=C(Cc1ccccc1)NN1C(=O)C2C3C=CC([C@@H]2C1=O)C31CC1` (stereo partly shown), the “hERG current change (%, negative = inhibition) at 1uM” value came out at 8.6%.

On to `Cc1ccc(C)c(C(=O)N(C)CC(=O)Nc2ccccc2C(F)(F)F)c1`, for which the “hERG current change (%, negative = inhibition) at 1uM” value was -0.294%.
